1 molecule from ChEMBL document CHEMBL1159009, “Anti-influenza virus effect of some propolis constituents and their analogues (esters of substituted cinnamic acids)” (J Nat Prod, 1992) can be followed below.

This assay deals with Influenza B virus. Description: Antiviral activity against influenza B virus (B/Lee/1940) infected in hen chorioallantoic membrane assessed as inhibition of viral infectivity after 72 hrs.

Activity calls are given as the source filed them. No cut-off for these calls is given here.

As for `COc1cc(/C=C/C(=O)OCCC(C)C)ccc1O` [ISOPENTYL FERULATE], the result was inactive.
